# Measurements taken from PubChem BioAssay AID488969 (Vanderbilt High Throughput Screening Facility, 2010).
# Whole data set: some 110,000 compounds, median “z-score” near -0.1, cut for the highest 2% near 2. Some of the results follow. Active and inactive are the calls of the source.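 Rule for the calls: active = z-score in the third read window above 3 or below -3; inactive = the rest.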
# Molecular target: Metabotropic glutamate receptor 8 (Rattus norvegicus) (UniProt P70579)
# Experiment: rat mGluR8 modulators via GIRK flux, primary screen, cell-based, thallium flux, HTS (AID 488969)
# Conditions: HEK293 rat mGluR8, GIRK (G protein-gated inwardly rectifying potassium channel) thallium flux, FluoZin2; at 10 µM; stronger effect = higher value; submaximal glutamate (EC20) added with thallium
# UniProt P70579, sequence (P70579 whole entry, looked up): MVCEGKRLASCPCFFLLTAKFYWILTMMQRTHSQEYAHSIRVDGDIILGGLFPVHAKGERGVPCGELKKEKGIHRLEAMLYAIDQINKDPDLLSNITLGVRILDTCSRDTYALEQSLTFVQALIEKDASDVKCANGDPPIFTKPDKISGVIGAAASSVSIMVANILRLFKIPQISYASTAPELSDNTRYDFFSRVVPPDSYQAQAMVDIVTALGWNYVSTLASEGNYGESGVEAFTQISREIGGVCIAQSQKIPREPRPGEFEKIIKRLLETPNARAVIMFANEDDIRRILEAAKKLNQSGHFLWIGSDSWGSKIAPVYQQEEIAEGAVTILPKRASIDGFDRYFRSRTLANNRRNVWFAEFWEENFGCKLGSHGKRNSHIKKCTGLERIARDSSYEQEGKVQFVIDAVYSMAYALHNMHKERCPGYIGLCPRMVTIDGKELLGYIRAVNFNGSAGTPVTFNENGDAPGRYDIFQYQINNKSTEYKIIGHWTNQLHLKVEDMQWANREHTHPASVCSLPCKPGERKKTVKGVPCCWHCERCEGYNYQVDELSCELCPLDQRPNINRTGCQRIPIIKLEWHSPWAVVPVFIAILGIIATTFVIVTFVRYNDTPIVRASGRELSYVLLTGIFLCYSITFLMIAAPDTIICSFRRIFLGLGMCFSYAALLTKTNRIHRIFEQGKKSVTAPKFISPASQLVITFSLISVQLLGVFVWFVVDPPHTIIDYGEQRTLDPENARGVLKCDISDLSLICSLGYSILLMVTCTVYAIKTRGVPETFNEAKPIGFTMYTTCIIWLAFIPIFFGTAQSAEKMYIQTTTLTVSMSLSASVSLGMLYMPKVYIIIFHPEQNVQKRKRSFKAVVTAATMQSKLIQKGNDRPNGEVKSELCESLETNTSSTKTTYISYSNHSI
row,SMILES,z-score
1,CCCCN(C(=O)CSc1nnc(-c2ccc(OC)cc2)n1C(C)C)c1c(N)n(Cc2ccccc2)c(=O)[nH]c1=O,-0.219
2,O=C(NCc1nc(-c2ccccc2)no1)c1ccc2c(c1)OCO2,-0.283
3,O=C(COC(=O)CCSc1ccccc1)NCc1ccccc1Cl,-0.354
4,CC(C)CNc1cc(=O)n(C)c(=O)n1C,0.383
5,O=C(Nc1ccccc1)c1ccc(Cn2cc(C(F)(F)F)ccc2=O)cc1,-0.0968
6,Cc1ccc(/C=C/c2nnc(-c3cccs3)o2)cc1,0.191
7,CC(C(=O)N1CCN(c2ccc(Cl)cc2)CC1)c1ncc(C(F)(F)F)cc1Cl (stereo not drawn),-0.197
8,COc1ccc(C(=O)n2c(SC)nc3cc4c(cc32)OCCO4)cc1,-0.848
9,Cc1ccccc1Cn1c(=O)n(CCCC(=O)NCc2ccco2)c(=O)c2sccc21,-0.264
10,O=C(Nc1ccccc1C(=O)N1CCOCC1)C1COc2ccccc2O1 (stereo not drawn),0.436
11,C/C(=N\NC(=O)c1ccccc1[N+](=O)[O-])c1c(O)cc(C)oc1=O,-0.137
12,CC(=O)c1c(C)[nH]c(C(=O)CSc2nnc3ccccn23)c1C,-0.0581
13,CCCCCC(=O)Nc1ccc(N2CCN(S(C)(=O)=O)CC2)cc1,0.139
14,COC(=O)c1sccc1NC(=O)c1cc(-c2cccc(C)c2)nc2ccccc12,-0.317
15,NC(=O)c1ccsc1NC(=O)CN1C(=O)C2CC=CCC2C1=O (stereo not drawn),0.552
16,Cc1nc2ccc(NC(=O)c3ccc(S(=O)(=O)N(C)c4ccccc4)cc3)cc2s1,-0.562
17,Cc1cc(C)c(NC(=O)CSc2nc3ccc(NC(=O)CSc4nnnn4Cc4ccccc4)cc3s2)c(C)c1,-0.271
18,COC(=O)c1c(N2C(=O)[C@H]3[C@@H](C2=O)[C@]2(C(=O)Nc4c2ccc(C)c4C)N2CCC[C@@H]32)sc(C)c1C,0.072
19,CCOC(=O)c1c(NC(=O)CSc2nnnn2-c2ccccc2)sc2c1CCC(C)C2 (stereo not drawn),-0.662
20,CC(C)OCCCNC(=O)C(=O)NCCCOC(C)C,-0.0513
21,Cc1cccc(C)c1NC(=O)/C(C#N)=C/c1cccs1,-0.0784
22,Cc1nn(Cc2ccc(Cl)c(Cl)c2)c(C)c1NC(=O)c1sc2ccccc2c1Cl,-0.213
23,COc1ccc(NC(=O)COC(=O)c2cc(OC)c(OC)cc2NC(=O)c2ccco2)cc1OC,-0.379

row,SMILES,z-score
1,CCc1ccc(NC(=O)CC2C(=O)Nc3c2c(=O)n(C)c(=O)n3C)cc1 (stereo not drawn),-0.691
2,O=C1CCCC2=C1C(c1ccncc1)c1c(nc(SCc3ccccc3)[nH]c1=O)N2 (stereo not drawn),-1.55
3,Cc1ccc(S(=O)(=O)c2ccc(Cl)cc2)cc1S(=O)(=O)N1CCN(C)CC1,0.436
4,C1CCCC(N2CCNCC2)CC1,0.33
5,O=C(Cc1ccccc1[N+](=O)[O-])Nc1ccc2c(c1)OCCO2,-0.115
6,CCCCNC(=S)N/N=C1\C(=O)c2cccc3cccc1c23,active: 3.16
7,CCOC(=O)COc1ccc2ccccc2c1/C=C/[N+](=O)[O-],0.0128
8,O=C(CSc1nc(O)cc(=O)n1-c1ccccc1)NCc1ccccc1,0.505
9,CCNC(=O)CN(c1ccc(OC)c(OC)c1)S(=O)(=O)c1ccccc1,-0.11
10,COc1ccc(CCN(C)CCC(=O)Nc2cc(C)ccc2C)cc1OC,-0.105
11,Nn1c(SCc2csc(-c3ccccc3)n2)nnc1-c1cccs1,-0.675
12,COc1ccc(-c2cc(C(F)(F)F)nc(N3CCN(c4ccc(F)cc4)CC3)n2)cc1OC,-0.618
13,CCOc1cc(C)c(S(=O)(=O)Nc2ccc(Cl)cn2)cc1C,-0.241
14,CCC(=O)n1nc(-c2ccccc2)nc1N,-0.874
15,COc1cc2c(cc1OC)CN(C(=O)c1ccc(S(=O)(=O)N3CCCCCC3)cc1)CC2,-0.698
16,CCOC(=O)Cc1nnc2c(Nc3ccc(C)cc3)nc3nonc3n12,-0.777
17,CCCc1cc(C(N)=O)c(NC(=O)c2ccco2)s1,-0.478
18,Clc1cccc(Oc2cnc3ccccc3n2)c1,-0.105
19,COc1ccc(OC)c(Nc2nc3nonc3nc2N2CCCCC2)c1,-0.227
20,COc1cccc(/C=N/NC(=O)CCc2n[nH]c(=O)[nH]c2=O)c1O,-0.00761
21,Cc1ccc(N2C(N)=C(C#N)C(c3cccnc3)C3=C2CC(C)(C)CC3=O)cc1 (stereo not drawn),-0.318
22,Cc1cc(N2CCCC2)nc(-c2ccccc2O)n1,0.00629
23,O=C(O)c1cc(/C=N\O)ccc1OCc1ccccc1,0.164

row,SMILES,z-score
1,COC(=O)c1ccc(N2C(=O)CC(N3CCC(O)(c4ccc(Br)cc4)CC3)C2=O)cc1 (stereo not drawn),0.0452
2,COc1ccc(CCNC(=O)c2nnn(-c3cccc(C)c3)c2N)cc1OC,-1.32
3,O=C(Nc1cccc(Cl)c1)N(CCN1CCOCC1)Cc1ccccc1F,-0.654
4,COc1ccc(/C=N/Nc2nonc2N)cc1OC,-0.52
5,CCN(CC)S(=O)(=O)c1ccc2c(c1)nc(CCC(=O)OCC(=O)Nc1cc(OC)cc(OC)c1)n2C,-0.316
6,CC(C)c1cc(C(=O)O)n(-c2ccccc2)n1,-0.019
7,COc1ccc([N+](=O)[O-])cc1NC(=O)C1CCCO1 (stereo not drawn),-0.326
8,CC1=CC(C)(C)Nc2ccc(OC(=O)CN3C(=O)C4CCCCC4C3=O)cc21 (stereo not drawn),1.08
9,COc1ccccc1C(=O)OCc1nc(N)nc(Nc2ccccc2C)n1,-0.14
10,O=C1CC(N2CCN(c3ccc(F)cc3)CC2)C(=O)N1Cc1ccc(N2CCCC2=O)cc1 (stereo not drawn),0.135
11,COc1ccc(/C=N/NC(=S)Nc2ccccc2[N+](=O)[O-])cc1O,1.71
12,O=C1CC(c2ccc(Cl)cc2)CC(O)=C1C=NCCN1CCNCC1 (stereo not drawn),1.62
13,CCN(c1ccccc1)S(=O)(=O)c1ccc(C(=O)Nc2nccs2)cc1,0.0747
14,CCCCOc1ccc(NC(=O)CSc2cccc3cccnc23)cc1,0.468
15,CCN(CCCNC(=O)CN(C)S(=O)(=O)c1cccc2nsnc12)c1cccc(C)c1,-0.213
16,Cc1cc(C)n(-c2ccc(Cl)c(C(=O)O)n2)n1,0.445
17,O=C(NC1CCCC1)C1CCN(S(=O)(=O)N2CCCCC2)CC1,-0.018
18,Oc1oc(-c2ccccc2)nc1C=Nc1ccccc1,-0.937
19,Cc1cccc(-c2nc(CS(=O)CC(=O)N3CCCCC3)c(C)o2)c1 (stereo not drawn),-0.419
20,CCn1ncc(CNC(=O)CCSc2nc(-c3ccco3)cc(C(F)(F)F)n2)c1C,-0.127
21,CC(C)CCNC(=O)NC(=O)CN1C(=O)NC2(CCCCC2)C1=O,0.0574
22,CCc1nnc2c3cnn(-c4ccccc4)c3ncn12,0.421
